# From PubChem BioAssay AID463173 (ICCB-Longwood Screening Facility, Harvard Medical School, 2010)
# Hit rate of the full screen: of about 52,000 compounds, about 4,300 (8.3%) were called active. Cut-off read from the data, not from the text of the source: active = survival mostly below about 52% (no sharp cut-off); inactive = mostly above about 56%. The list shows a part of the results.
# System: DeltatarO mutant
# Assay: growth inhibition of S. aureus wild type versus tarO mutant, primary screen, teichoic acid synthesis inhibitors, RN4220, OD600 (AID 463173)
# Conditions: OD600, 18 h, hits give low values, screened at 18.75 µg/mL (by protocol)
row,Compound,survival
1,COc1ccccc1NC(=O)CSC1=Nc2ccccc2C2=NC(CC(=O)NCc3ccco3)C(=O)N12 (stereo not drawn),inactive: 124%
2,O=C(N/N=C/c1ccccc1)Nc1ccccc1,inactive: 104%
3,COc1cccc(-n2c(=O)c3c(C)c(C)sc3n(CC(=O)NCc3ccc(C)cc3)c2=O)c1,inactive: 59%
4,CC(C)(C)C(=O)Nc1cccc(-c2cn3cccnc3n2)c1,inactive: 75%
5,Cc1ccc(-c2nnc(N3CCOCC3)c3ccccc23)cc1S(=O)(=O)N1CCN(C)CC1,inactive: 97%
6,COC(=O)c1cc2sccc2n1CCC#N,inactive: 103%
7,Cc1cccc(CSc2ncc(Cl)c(C(=O)Nc3sc4c(c3C(N)=O)CCCC4)n2)c1,inactive: 112%
8,O=C(Cn1c(=O)nc(-c2ccccc2)c2ccccc21)Nc1cccc(C(F)(F)F)c1,inactive: 104%
9,CCn1c(CCc2ccccc2)n[nH]c1=S,inactive: 102%
10,CC(=O)NC1C(=O)N(C(C)C)c2ccccc21 (stereo not drawn),inactive: 97%
11,COc1cccc(CNCCNC(=O)c2nonc2N)c1,inactive: 72%
12,O=C(NCc1ccccc1Cl)c1cc2c(s1)-c1ccc(Cl)cc1SC2,inactive: 60%
13,CCSc1nc2c([nH]c3ccccc32)c(=O)n1CC,inactive: 68%
14,CCOC(=O)CSc1nc(-c2ccc(C)cc2C)cc(-c2ccccc2)c1C#N,inactive: 68%
15,CCOc1ccccc1NC(=O)N1CC(CC)Oc2ccccc21 (stereo not drawn),inactive: 64%
16,Cc1ccc(C(=O)CSc2nc(-c3ccccc3)nc3c2CCCC3)cc1,active: 36%
17,CC(NC(=O)CSc1ncccn1)c1ccccc1 (stereo not drawn),inactive: 75%
18,N#C/C(=C\C1CC=CCC1)c1nc2ccccc2[nH]1 (stereo not drawn),inactive: 86%
19,Cc1nn(CCC(=O)Nc2cc(F)ccc2F)c(=O)c2nn(-c3ccccc3)c(C)c12,inactive: 99%
20,O=C(CC1N=C2c3ccccc3N=C(SCc3cccc(Cl)c3)N2C1=O)NCc1ccc2c(c1)OCO2 (stereo not drawn),inactive: 68%

row,Compound,survival
1,CC1CCCCN1C(=O)CSc1n[nH]c(-c2ccccc2Cl)n1 (stereo not drawn),inactive: 96%
2,COc1cc(Nc2nc(SCC(=O)c3ccc(Br)cc3)nc3ccccc23)cc(OC)c1,inactive: 92%
3,COc1ccc(-c2cn(-c3ccc(C)cc3)c(S(=O)(=O)CC(=O)Nc3ccc(F)cc3)n2)cc1,inactive: 150%
4,COc1ccccc1NC(=O)c1cc(=O)c2ccc(C)c(C)c2o1,active: 41%
5,CCOC(=O)c1ccc2c(c1)N(CC(=O)N(C)c1ccccc1)C(=O)c1ccccc1S2,inactive: 94%
6,CCOc1ccc(CCNC(=O)c2cc3c(=O)oc4ccc(C)cc4c3s2)cc1OCC,inactive: 67%
7,Cc1cc(C)c(NC(=O)CCS(=O)(=O)c2cc3c(cc2Cl)NC(=O)CO3)c(C)c1,inactive: 80%
8,CCOc1ccc(NS(=O)(=O)c2cc3c(cc2Cl)NC(=O)CO3)cc1,inactive: 107%
9,CCOc1ccc(N(C)S(=O)(=O)c2ccc3c(c2)CCCN3C(C)=O)cc1,inactive: 86%
10,O=C(CSCn1nnc2c(=O)[nH]c(Cc3ccc(F)cc3)nc21)Nc1cccc(C(F)(F)F)c1,inactive: 64%
11,COc1cc2c(cc1OC)C(COc1cccc(C(F)(F)F)c1)N(C(=O)c1ccc(S(=O)(=O)N3CCCC3)cc1)CC2 (stereo not drawn),inactive: 80%
12,CCc1ccccc1NC(=O)C(=O)NCCCN1CCOCC1,inactive: 79%
13,CCC(C)NC(=O)C1CCN(S(=O)(=O)c2ccc3c(c2)CCCN3C(C)=O)CC1 (stereo not drawn),inactive: 67%
14,O=C1CCCc2cc(S(=O)(=O)N3CCCC(C(=O)NCc4ccccc4)C3)ccc2N1 (stereo not drawn),inactive: 73%
15,CC(=O)c1cccc(NC(=O)c2nc(-c3ccccc3)n(-c3ccccc3)n2)c1,inactive: 56%
16,Cc1cc(C)c(NC(=O)CN(C)S(=O)(=O)c2ccc3c(c2)CCC(=O)N3)c(C)c1,inactive: 78%
17,COc1cc2c(cc1OC)n(Cc1cccc(C(F)(F)F)c1)c(=O)n1nc(-c3ccccc3)nc21,inactive: 94%
18,O=C(Oc1cccc2cccnc12)c1ccccc1,active: 2%
19,COc1nc(NCCO)nc(Nc2ccccc2F)n1,inactive: 62%
20,COc1cccc(NC(=O)CCNS(=O)(=O)c2ccc3c(c2)oc(=O)n3C)c1,inactive: 90%

row,Compound,survival
1,COc1ccc(CNC(=O)c2cc3c(=O)n(Cc4ccco4)ccc3nc2C)cc1,inactive: 102%
2,Cc1ccccc1NC(=O)Cn1cc(C(=O)c2cccs2)c2ccccc21,inactive: 131%
3,CCc1ccc(NC(=O)CSC2=Nc3ccccc3C3=NC(CCC(=O)NCc4ccccc4)C(=O)N23)cc1 (stereo not drawn),inactive: 106%
4,CCCCN(C)C(=O)c1cn(C)c2ccc(S(=O)(=O)N3CCC(C)CC3)cc2c1=O,inactive: 91%
5,Cc1cccc(N2C(=O)c3cccc4c(N5CCNCC5)ccc(c34)C2=O)c1,inactive: 95%
6,COc1ccccc1NC(=O)Cn1c(=O)n(Cc2ccccc2)c(=O)c2c1c1cc(C)ccc1n2C,inactive: 101%
7,O=C(Cn1ccc2cc(S(=O)(=O)N3CCCCC3)ccc21)NCCc1ccccc1Cl,active: -4%
8,CCCCC(=O)OC1=C(C(=O)c2ccccc2)N(CCC)S(=O)(=O)c2ccccc21,active: 18%
9,COc1ccc(C(=O)CN2CCC(N3CCCCC3)CC2)cc1,inactive: 92%
10,Cc1ccsc1CN1CCc2nc(Nc3ccccc3)ncc2C1,inactive: 61%
11,CC(SC12CC3CC(CC(C3)C1)C2)C(=O)O (stereo not drawn),inactive: 86%
12,CC(NC(=O)CSc1n[nH]c(-c2ccccc2Cl)n1)c1nc2ccccc2[nH]1 (stereo not drawn),inactive: 72%
13,CNC(=O)CCCN1C(=O)c2cccnc2Sc2ccccc21,inactive: 86%
14,CCOc1cc(C(=O)NCCc2sc(-c3ccc(F)cc3)nc2C)cc(OCC)c1OCC,inactive: 125%
15,Cc1nc2ccc(S(=O)(=O)N(CC(=O)Nc3ccc(F)cc3F)Cc3ccccc3)cc2s1,inactive: 81%
16,CCOc1ccc(NC(=O)c2ccc3[nH]c(C)c(C)c3c2)cc1,inactive: 97%
17,Cc1ccc(S(=O)(=O)Nc2cccc(-c3cn4cccc(C)c4n3)c2)c(C)c1,inactive: 75%
18,O=C(Cn1c(=O)c2cccn2c2cccnc21)NCc1cccc(F)c1,inactive: 77%
